Whole data set: some 33,000 sequences, median “E-score (-0.5 to 0.5)” near -0.041, cut for the highest 2% near 0.37. Some of the results follow.
biological target: T1, Ecm22 (UniProt Q05958); assay: PBM E-score (8-mer binding enrichment) (E-score (-0.5 to 0.5)); higher = stronger / more preferred TF binding; most listed sequences are background and not binding sites; conditions: protein concentration: 200 nM; construct: GST-full length
T1 sequence: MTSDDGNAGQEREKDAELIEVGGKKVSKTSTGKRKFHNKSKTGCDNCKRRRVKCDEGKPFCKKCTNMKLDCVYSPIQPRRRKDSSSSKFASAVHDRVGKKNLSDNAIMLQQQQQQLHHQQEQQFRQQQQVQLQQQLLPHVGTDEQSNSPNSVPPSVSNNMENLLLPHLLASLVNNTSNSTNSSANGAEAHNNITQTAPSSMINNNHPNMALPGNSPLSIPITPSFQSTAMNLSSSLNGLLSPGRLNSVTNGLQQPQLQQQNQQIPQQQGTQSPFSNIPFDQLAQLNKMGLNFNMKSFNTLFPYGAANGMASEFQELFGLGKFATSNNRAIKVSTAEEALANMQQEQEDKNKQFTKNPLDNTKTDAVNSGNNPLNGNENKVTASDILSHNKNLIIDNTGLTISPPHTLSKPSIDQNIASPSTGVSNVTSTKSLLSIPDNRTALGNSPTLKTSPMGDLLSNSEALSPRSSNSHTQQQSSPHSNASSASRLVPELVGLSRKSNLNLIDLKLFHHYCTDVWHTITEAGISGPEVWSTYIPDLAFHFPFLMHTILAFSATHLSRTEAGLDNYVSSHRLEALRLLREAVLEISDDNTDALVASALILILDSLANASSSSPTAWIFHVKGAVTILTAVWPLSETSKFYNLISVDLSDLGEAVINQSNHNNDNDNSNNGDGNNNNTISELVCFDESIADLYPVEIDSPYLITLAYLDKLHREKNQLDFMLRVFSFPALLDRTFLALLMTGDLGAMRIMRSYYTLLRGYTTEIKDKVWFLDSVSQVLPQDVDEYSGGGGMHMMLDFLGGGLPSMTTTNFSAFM
Method in brief: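 Yeast transcription factors carrying a GST tag, as full-length proteins or DNA-binding domains, were produced by PURExpress in vitro transcription/translation. About 100-200 nM protein was applied to universal all-10-mer Agilent arrays, double-stranded by primer extension on fresh or once-stripped slides. Bound protein was detected with fluorescent anti-GST, and scans were normalised with masliner. The Universal PBM Analysis Suite gave each ungapped eight-base word, pooled with its reverse complement, an E-score, a modified Wilcoxon-Mann-Whitney statistic.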

Row | Sequence | PBM E-score
1 | GCGCGTCA | 0.00517
2 | ACTAGCTC | 0.124
3 | ATTGGAGG | -0.197
4 | ATCACCTC | -0.0728
5 | GTAGGGGA | -0.206
6 | GAATAAAC | 0.0513
7 | ATGCCAAT | -0.168
8 | AGCGTCCC | -0.145
9 | ACGCGACT | 0.0359
10 | ACGAGGAA | 0.375
11 | GCGTGGTA | 0.0874
12 | AAGCAGAG | -0.175
13 | ACTCCTGC | 0.0512
14 | GCAGACCA | -0.16
15 | ATCTCGGG | 0.114
16 | GCACTTTA | -0.0321
17 | ACGCGACA | 0.15
18 | CATCTTAG | -0.0868
19 | GTTTACCA | 0.147
20 | ATCGATAG | 0.00897
21 | AAGAGGGG | -0.0791
22 | CCGCGTCG | 0.135
23 | GCTTTAAA | -0.0882
24 | GATAATAC | 0.0704
25 | ACGCAGGA | 0.108

Row | Sequence | PBM E-score
26 | AATGTAAG | 0.0738
27 | ATACATAT | 0.173
28 | ACCCAATA | -0.139
29 | AGCGCTGC | -0.158
30 | ATAACATG | -0.0341
31 | CAACACAA | 0.0316
32 | ACGCCCTG | -0.0148
33 | CATGCGCA | -0.0944
34 | GCGCGGCC | -0.114
35 | AATGGGCT | -0.198
36 | TGGGGTAA | 0.0699
37 | AACCGGAA | 0.237
38 | CCGACGCA | 0.00712
39 | ACGAAATC | 0.285
40 | GAACATGC | 0.00051
41 | AATTCAAT | 0.0725
42 | ATCAGCAC | -0.204
43 | CAATCGCC | 0.0448
44 | AGCGATCG | 0.246
45 | AGTCGAAC | 0.0504
46 | CGCAAATA | -0.00057
47 | CCCTCACC | -0.212
48 | GGGCGTCA | -0.286
49 | GCCGCCAA | -0.0787
50 | GATTTCAC | 0.0409

Row | Sequence | PBM E-score
51 | AAGGGATC | 0.112
52 | ATCCCGTA | 0.362
53 | AGGAGCTA | -0.138
54 | AGTCCAGA | -0.227
55 | CGGAGATA | 0.225
56 | CAGCACCG | -0.0578
57 | ACAAATAC | 0.152
58 | CGTCTCCA | 0.076
59 | ATCGGGAC | 0.0332
60 | TAACCCGA | 0.215
61 | TACTACGA | 0.347
62 | CCAGACAA | -0.0404
63 | TAGGGTGA | -0.0693
64 | TCCTCTAA | -0.0974
65 | CTACCCTA | -0.338
66 | CTGAAGAC | 0.056
67 | CCGAGTAA | 0.256
68 | ACGACTTA | 0.345
69 | GGTCACAC | -0.154
70 | GACTGCAC | -0.108
71 | GGCATGCA | -0.0522
72 | CTCATTAC | 0.0181
73 | TCCGCCAA | -0.121
74 | GTTTACAA | 0.19
75 | ACTTGCTG | -0.205

Row | Sequence | PBM E-score
76 | ACGGCCTC | 0.136
77 | ATTATACG | 0.476
78 | ATGGACCC | -0.193
79 | AACCCTAC | -0.257
80 | GGCTCGTA | 0.479
81 | CAGAGTGC | -0.153
82 | CCCACCCC | -0.0343
83 | AGCCTCTA | -0.153
84 | ACATCTTG | -0.0408
85 | AGATATTC | -0.173
86 | AATAAACG | 0.41
87 | AGGCCAAG | -0.116
88 | CATGTGTA | 0.0619
89 | AGGAGCAC | -0.00417
90 | CGAATGCA | 0.138
91 | AACAGGGA | 0.00148
92 | ATCAGGGA | -0.128
93 | AAGTTGGC | -0.232
94 | ATGCTATG | -0.105
95 | GCTGTTCC | -0.132
96 | GTCCGTAA | 0.169
97 | ATCTAGTA | 0.175
98 | CCGGAGAA | 0.0286
99 | CGTGTGAC | -0.0109
100 | GCCATCCA | -0.209

Row | Sequence | PBM E-score
101 | GCACTCGA | -0.0307
102 | CGAATAGA | 0.0614
103 | CCTTGGCG | -0.159
104 | CATAAGCG | -0.0124
105 | ACCAGTTC | 0.00324
106 | ACTTATTA | -0.00971
107 | GAGCTTAA | 0.0486
108 | AGGAGTAA | -0.0246
109 | CCGGTACG | 0.448
110 | CTTCCACC | -0.197
111 | AAAGGCTT | -0.177
112 | GATTCTTA | 0.0436
113 | AATGTTGA | -0.103
114 | TGATAGAA | -0.116
115 | AAGTGCTG | 0.0503
116 | GTATATTA | 0.195
117 | ACTCATTC | -0.0742
118 | AGGTCTAC | -0.0135
119 | CGCTATCC | 0.151
120 | TCTCCAAA | -0.187
121 | CTGTCCTA | -0.18
122 | AACAACCC | 0.155
123 | GATTCGTA | 0.45
124 | ATTCGTGC | -0.00078
125 | CATCGAAG | -0.0741

Row | Sequence | PBM E-score
126 | AATTCTGG | -0.165
127 | ACTCTAAG | -0.283
128 | CGATTGCA | 0.136
129 | ACTAGTCG | -0.0405
130 | CCCCTTAG | -0.15
131 | CCGAGCCG | 0.227
132 | ATCAACCA | -0.154
133 | CCGGTTAC | 0.16
134 | GGTCCTAC | -0.103
135 | ATGATCAA | 0.0409
136 | ATTGCCCG | 0.0752
137 | ATTCTTGA | -0.0346
138 | TATTGAAA | -0.0178
139 | GCTGATCA | -0.0195
140 | CATGGCAG | -0.153
141 | AGCGCTGA | -0.0958
142 | CCGCAACA | -0.0757
143 | CGCATCAG | 0.0331
144 | CCGTTCTA | 0.179
145 | TGAAGGAA | -0.121
146 | CGCGCCAA | 0.117
147 | ATATCACC | 0.0983
148 | ACGGGTCG | 0.267
149 | ATTTAATG | 0.104
150 | ATGTAGCC | -0.177

Row | Sequence | PBM E-score
151 | ACATTGGA | -0.209
152 | AGAGCCGC | -0.197
153 | ACGAAGCT | 0.313
154 | AAGCAACG | 0.202
155 | AACCTAGA | -0.0874
156 | GAACCGCA | 0.00316
157 | ATGACTGA | -0.233
158 | CTAGTGGA | -0.21
159 | AATGCTAC | -0.00666
160 | CGCATTCA | 0.0952
161 | GTCTCTTA | 0.0595
162 | AGAGGGCA | -0.402
163 | GCGCCCAC | -0.143
164 | ACGAAACT | 0.369
165 | ATATACGA | 0.49
166 | ATTCGTCC | 0.0925
167 | CGCAGCGC | -0.0542
168 | AAAGTGAG | -0.0734
169 | ACATGTCT | -0.102
170 | ATAGCGAC | 0.225
171 | AAATCAAT | -0.102
172 | AGGGTTAC | -0.117
